According to the supplement of paper PMC10126150:
Sequences with one replicate were seen in a single cluster, so their values are uncertain.

Tested on: ATP
Experiment: switch fluorescence ratio, 500 uM ATP over buffer (Cy3 cluster intensity, sum of 5 cycles each) (fold (ratio)); higher = stronger signal-on switching upon ATP binding; sequences stand for … in TCGTCGGCAGCGTCAGATGTGTATAAGAGACAGTTTTTTTTTTTTTTTTTTTTTTTTT…TC
Conditions: aptamer strand: ATP DNA aptamer (quencher-CACCTGGGGGAGTATTGCGGAGGAAGG + anchor), 100 nM annealed; ATP concentration: 500 uM; one replicate
Outline: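 Clusters carrying Cy3-labelled switching strands on a modified Illumina MiSeq flow-cell were annealed to 100 nM quencher-labelled ATP aptamer and imaged in selection buffer. They were imaged again after 15 min with 500 uM ATP at 22 °C, over five buffer/ATP cycles with NaOH stripping and re-annealing in between. For each cluster, the fluorescence ratio is the summed Cy3 intensity of the target cycles divided by that of the buffer cycles, averaged per switch-domain sequence. Clusters outside 100-1000 RFU were left out.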
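Note: ATP exposure 15 min at 22 °C before imaging.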

Row | Sequence | switch fluorescence ratio
1 | CAGTTCCGAG | 1.3
2 | TGATGTACAG | 1.01
3 | AAGCTGAGCG | 0.984
4 | GGACTCTGCC | 1.11
5 | TCATGAAGGT | 0.982
6 | GATTGTGAGA | 1.02
7 | GACACTGCAA | 3.98
8 | CTCGTGAAGA | 1.09
9 | GAAACTTTTT | 0.999
10 | GCATCAATAA | 1.1
11 | GAGTTCTTGA | 0.993
12 | AAGCGTGGAG | 1.08
13 | GTGTGAGATA | 0.969
14 | CGACCCGAGG | 1.2
15 | GAGCTGAGGG | 0.992
16 | GCCAGTAGCT | 1.01
17 | CGTCTTGTTG | 0.986
18 | GGTACCGCAT | 1.82
19 | TGGCGAAAAT | 0.996
20 | CCTTGTTCAC | 1.04
21 | TGAATCGATC | 1.05
22 | AACTCTACAG | 1.12
23 | ATCCCGCCTA | 1.07
24 | TTATCGTCCG | 1
25 | CTAGACTCTC | 0.95
26 | CCGTCTATGT | 1.09

Row | Sequence | switch fluorescence ratio
27 | CAGACTTCAA | 1.07
28 | AAGCCACAGA | 1.1
29 | GTAACGACCG | 1.01
30 | AGAGCCTAG | 0.978
31 | TGGTCCAAAT | 0.995
32 | GTAGGCCTGT | 1.01
33 | TTGCTCTGTC | 0.993
34 | GAGCGGTGAT | 1.01
35 | TTCGATTTAG | 1
36 | TGGGGGCGA | 0.983
37 | GCCTAGAGAA | 1.03
38 | GTGGCTATTT | 1.02
39 | TAATTGCCGT | 1.02
40 | AATAGGGCAA | 1.04
41 | TTTGCTAGGG | 0.955
42 | TGGGAATGG | 1.02
43 | AGTTGAACAT | 1.02
44 | GTGGTATACA | 0.968
45 | GGTTACATT | 1.02
46 | TAGAGAAAGT | 0.978
47 | TTTTCGTCGA | 1.03
48 | TAAGACAAGA | 0.975
49 | TACCTTTCTG | 1.18
50 | ACCTCCGGTT | 1.18
51 | CACAGTCTAA | 0.982
52 | AGTCCAGGGC | 1.02

Row | Sequence | switch fluorescence ratio
53 | GATTATAAGC | 0.989
54 | TCGTGTCGAG | 0.973
55 | TTTGGCGCTA | 0.973
56 | CGGGCTCACG | 0.987
57 | TTATTATGCT | 1.04
58 | GTCAACGTCG | 0.971
59 | TGCACTCTTG | 1.07
60 | GATGGAGGTA | 1.02
61 | AATCAATGCG | 1.02
62 | ACGCATTTTT | 2.11
63 | CCTCTTTTTC | 1.57
64 | AGCGAGAAGG | 0.956
65 | AGTACCACGC | 1.1
66 | CATTGTTCAT | 0.995
67 | TGCCGCCATA | 1.23
68 | TTACCGTACC | 1.69
69 | TTGAAATT | 0.998
70 | GGCGCTGCCG | 1.03
71 | CTAAAAAACT | 1.05
72 | CAGTCTAGTG | 1.02
73 | TTGAAAACCT | 1.07
74 | GACTTCGGG | 0.957
75 | CACAATGACA | 1.12
76 | GAAGGATGCC | 1.03
77 | GTGGTTGAAT | 0.99
